Publication PMC5141367, “Structural decoding of netrin-4 reveals a regulatory function towards mature basement membranes” (Nature Communications, 2016)
Results are given in words; binding and its absence hold for the method and conditions named. Some entries that bind do so weakly or less than the wild type. For some assays here: Sequences can lack the tags named with a protein. Each block holds one binder with its values, some of them ahead of it.

Sequences of proteins named here, by UniProt entry; tags and fusion partners are left off. A change or cut given only in a name is not applied to a line headed by its entry. Residues count along the entry.
UniProt P02468, residues 34-492: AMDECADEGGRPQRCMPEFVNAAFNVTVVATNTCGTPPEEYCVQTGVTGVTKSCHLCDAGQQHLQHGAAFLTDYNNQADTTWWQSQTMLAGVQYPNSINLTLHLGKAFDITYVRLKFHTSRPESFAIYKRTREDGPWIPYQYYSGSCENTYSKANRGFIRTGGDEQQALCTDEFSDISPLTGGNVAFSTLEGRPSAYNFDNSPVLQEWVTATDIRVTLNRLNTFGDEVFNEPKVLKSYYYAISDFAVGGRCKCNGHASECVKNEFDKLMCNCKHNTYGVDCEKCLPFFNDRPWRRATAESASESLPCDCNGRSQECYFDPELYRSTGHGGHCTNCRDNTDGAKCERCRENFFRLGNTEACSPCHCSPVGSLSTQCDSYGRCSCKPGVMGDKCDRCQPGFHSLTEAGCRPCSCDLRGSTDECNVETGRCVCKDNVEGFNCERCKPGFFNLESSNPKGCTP
UniProt P43146, residues 26-1097: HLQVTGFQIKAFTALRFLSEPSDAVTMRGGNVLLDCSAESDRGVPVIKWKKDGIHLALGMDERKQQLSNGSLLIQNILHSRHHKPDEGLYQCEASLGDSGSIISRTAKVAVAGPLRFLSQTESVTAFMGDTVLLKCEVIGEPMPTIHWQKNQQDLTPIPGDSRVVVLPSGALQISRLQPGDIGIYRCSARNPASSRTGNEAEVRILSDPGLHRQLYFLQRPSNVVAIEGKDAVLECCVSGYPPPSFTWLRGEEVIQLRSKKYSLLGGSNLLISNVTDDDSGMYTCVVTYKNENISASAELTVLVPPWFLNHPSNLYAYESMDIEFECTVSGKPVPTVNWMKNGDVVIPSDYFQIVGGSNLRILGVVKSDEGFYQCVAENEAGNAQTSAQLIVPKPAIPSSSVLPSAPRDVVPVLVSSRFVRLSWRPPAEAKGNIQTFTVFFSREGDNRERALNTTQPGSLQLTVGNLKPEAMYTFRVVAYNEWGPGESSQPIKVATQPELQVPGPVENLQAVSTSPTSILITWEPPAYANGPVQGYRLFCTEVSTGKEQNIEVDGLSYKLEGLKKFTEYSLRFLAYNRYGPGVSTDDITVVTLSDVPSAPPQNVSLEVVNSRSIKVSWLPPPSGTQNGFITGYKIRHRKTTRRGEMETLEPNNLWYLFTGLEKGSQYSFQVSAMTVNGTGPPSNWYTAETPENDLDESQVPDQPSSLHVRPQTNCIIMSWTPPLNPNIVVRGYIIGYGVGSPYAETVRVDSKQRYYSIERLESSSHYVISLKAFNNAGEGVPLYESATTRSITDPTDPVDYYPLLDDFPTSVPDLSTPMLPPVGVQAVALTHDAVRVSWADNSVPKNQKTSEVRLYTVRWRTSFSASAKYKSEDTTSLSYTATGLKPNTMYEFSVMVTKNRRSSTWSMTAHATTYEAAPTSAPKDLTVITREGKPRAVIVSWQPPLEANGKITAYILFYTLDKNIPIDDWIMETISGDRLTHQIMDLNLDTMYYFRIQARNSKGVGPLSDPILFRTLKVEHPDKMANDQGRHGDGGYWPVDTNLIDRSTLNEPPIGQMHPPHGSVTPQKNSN
UniProt O08722, residues 27-377: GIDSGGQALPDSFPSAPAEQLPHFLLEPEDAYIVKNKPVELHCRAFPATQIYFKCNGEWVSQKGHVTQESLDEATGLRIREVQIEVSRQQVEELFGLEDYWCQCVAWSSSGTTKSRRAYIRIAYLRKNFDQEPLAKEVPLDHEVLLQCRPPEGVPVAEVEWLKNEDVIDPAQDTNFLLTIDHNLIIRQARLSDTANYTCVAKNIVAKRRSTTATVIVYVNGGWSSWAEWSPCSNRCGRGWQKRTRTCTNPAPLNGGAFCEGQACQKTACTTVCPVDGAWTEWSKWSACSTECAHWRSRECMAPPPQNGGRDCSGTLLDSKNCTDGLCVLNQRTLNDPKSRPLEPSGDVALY
UniProt P97798, residues 37-1136: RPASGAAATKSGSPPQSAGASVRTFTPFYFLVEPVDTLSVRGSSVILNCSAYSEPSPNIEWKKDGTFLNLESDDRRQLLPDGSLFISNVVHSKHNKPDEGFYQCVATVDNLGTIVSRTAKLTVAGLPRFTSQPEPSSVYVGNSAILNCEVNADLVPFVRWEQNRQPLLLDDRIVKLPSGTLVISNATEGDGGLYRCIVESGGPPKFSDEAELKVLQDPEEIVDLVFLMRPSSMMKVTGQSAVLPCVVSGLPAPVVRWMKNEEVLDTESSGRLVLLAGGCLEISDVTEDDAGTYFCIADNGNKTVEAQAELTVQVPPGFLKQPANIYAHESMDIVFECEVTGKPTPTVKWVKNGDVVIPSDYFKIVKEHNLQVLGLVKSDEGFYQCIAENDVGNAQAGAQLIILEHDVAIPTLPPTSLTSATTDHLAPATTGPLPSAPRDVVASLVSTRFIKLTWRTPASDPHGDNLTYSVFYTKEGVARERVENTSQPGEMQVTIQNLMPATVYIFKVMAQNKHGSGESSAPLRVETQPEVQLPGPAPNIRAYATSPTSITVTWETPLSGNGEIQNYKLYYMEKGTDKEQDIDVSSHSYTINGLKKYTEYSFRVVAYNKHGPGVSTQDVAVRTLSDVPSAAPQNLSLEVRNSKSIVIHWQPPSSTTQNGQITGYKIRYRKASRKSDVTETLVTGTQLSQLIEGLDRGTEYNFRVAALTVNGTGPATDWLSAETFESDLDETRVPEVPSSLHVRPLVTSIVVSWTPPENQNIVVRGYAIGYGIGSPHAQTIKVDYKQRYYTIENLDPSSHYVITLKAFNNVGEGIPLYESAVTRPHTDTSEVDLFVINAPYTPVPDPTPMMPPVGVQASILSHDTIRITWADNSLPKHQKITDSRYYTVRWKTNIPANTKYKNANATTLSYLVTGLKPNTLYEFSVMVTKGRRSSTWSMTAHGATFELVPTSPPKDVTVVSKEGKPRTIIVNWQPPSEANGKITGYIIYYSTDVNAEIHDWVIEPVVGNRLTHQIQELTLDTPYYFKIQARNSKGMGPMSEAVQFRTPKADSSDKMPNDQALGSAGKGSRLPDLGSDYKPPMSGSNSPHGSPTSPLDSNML

How the values were obtained:
[1] = molecular target: laminin γ1 short arm fragment (γ1LN-LEa1-4) (Mus musculus) (UniProt P02468); assay: AUC; sedimentation peaks of Net4-FL, Net4-ΔC and their complexes with γ1LN-LEa1-4; Supplementary Fig. 5e; both purified
[2] = molecular target: laminin γ1 short arm fragment (γ1LN-LEa1-4) (Mus musculus) (UniProt P02468); assay: SEC; analytical size-exclusion chromatography of single proteins and of mixtures; both purified
[3] = molecular target: Recombinant human DCC/Fc chimera (human) (UniProt P43146); assay: BLI; Octet RED96; Fc chimera proteins (2 μg/ml) loaded on anti-human Fc (AHC) biosensors; netrins 50 nM in PBS, 0.1% BSA, 0.02% Tween 20; 30 °C; both purified
[4] = molecular target: Recombinant rat UNC5H2/Fc chimera (rat) (UniProt O08722); assay: as above
[5] = molecular target: Recombinant mouse neogenin/Fc chimera (mouse) (UniProt P97798); assay: as above

binding [1]: binds
B1: Net4 lacking the C-terminal domain (Net4-ΔC) (domain or fragment, Mus musculus, UniProt Q9JI33 20-462, looked up)
chain: LNGVAGANSRCEKACNPRMGNLALGRKLRADTMCGQNATELFCFYSENADLTCRQPKCDKCNAAHSHLAHPPSAMADSSFRFPRTWWQSAEDVHREKIQLDLEAEFYFTHLIMVFKSPRPAAMVLDRSQDFGKTWKPYKYFATNCSATFGLEDDVVKKGAICTSRYSNPFPCTGGEVIFRALSPPYDIENPYSAKVQEQLKITNLRVRLLKRQSCPCQINDLNAKPHHFMHYAVYDFIVKGSCFCNGHADQCLPVEGFRPIKAPGAFHVVHGRCMCKHNTAGSHCQHCAPLYNDRPWEAADGRTGAPNECRTCKCNGHADTCHFDVNVWEASGNRSGGVCNNCQHNTEGQHCQRCKPGFYRDLRRPFSAPDACKACSCHPVGSAILPFSSVTFCDPSNGDCPCKPGVAGPHCDRCMVGYWGFGDYGCRPCDCAGSCDPLTGDC
notes: lacks domain C); Two alternative constructs were cloned: one with an N-terminal His8 tag, one with an N-terminal double Strep II tag (not both on one chain); the tag was removed by thrombin; also called netrin-4; wild-type Net4; source: HEK293, stably transfected, purified (streptactin-sepharose or nickel TALON beads, thrombin digestion, SEC); not shown: double Strep II, N-terminal, cleaved; …

binding [2]: binds
B2: MBP-Net4-ΔC (domain or fragment, UniProt Q9JI33 20-462)
chain: LNGVAGANSRCEKACNPRMGNLALGRKLRADTMCGQNATELFCFYSENADLTCRQPKCDKCNAAHSHLAHPPSAMADSSFRFPRTWWQSAEDVHREKIQLDLEAEFYFTHLIMVFKSPRPAAMVLDRSQDFGKTWKPYKYFATNCSATFGLEDDVVKKGAICTSRYSNPFPCTGGEVIFRALSPPYDIENPYSAKVQEQLKITNLRVRLLKRQSCPCQINDLNAKPHHFMHYAVYDFIVKGSCFCNGHADQCLPVEGFRPIKAPGAFHVVHGRCMCKHNTAGSHCQHCAPLYNDRPWEAADGRTGAPNECRTCKCNGHADTCHFDVNVWEASGNRSGGVCNNCQHNTEGQHCQRCKPGFYRDLRRPFSAPDACKACSCHPVGSAILPFSSVTFCDPSNGDCPCKPGVAGPHCDRCMVGYWGFGDYGCRPCDCAGSCDPLTGDC

binding [3]: no binding (tested: 50 nM) | binding [4]: no binding (tested: 50 nM) | binding [5]: no binding (tested: 50 nM)
B3: full-length Net4 (Net4-FL) (natural protein, Mus musculus, UniProt Q9JI33 20-628, looked up)
chain: LNGVAGANSRCEKACNPRMGNLALGRKLRADTMCGQNATELFCFYSENADLTCRQPKCDKCNAAHSHLAHPPSAMADSSFRFPRTWWQSAEDVHREKIQLDLEAEFYFTHLIMVFKSPRPAAMVLDRSQDFGKTWKPYKYFATNCSATFGLEDDVVKKGAICTSRYSNPFPCTGGEVIFRALSPPYDIENPYSAKVQEQLKITNLRVRLLKRQSCPCQINDLNAKPHHFMHYAVYDFIVKGSCFCNGHADQCLPVEGFRPIKAPGAFHVVHGRCMCKHNTAGSHCQHCAPLYNDRPWEAADGRTGAPNECRTCKCNGHADTCHFDVNVWEASGNRSGGVCNNCQHNTEGQHCQRCKPGFYRDLRRPFSAPDACKACSCHPVGSAILPFSSVTFCDPSNGDCPCKPGVAGPHCDRCMVGYWGFGDYGCRPCDCAGSCDPLTGDCISSNADVDWYHEVPAFHSMHNKSEPSWEWEDEQGFSALRHSGKCECKEQVLGNPKAFCGMKYSYVLKIKILSAHDKGSHAEVNVKIKKVLKSTKLKILRGKRTLYPESWTNRGCTCPILNPGLEYLVAGHEDVRTGKLIVNMKSFVQHWKPALGRRVMHILKRDCV
notes: also called netrin-4; wild-type Net4; source: HEK293, stably transfected, purified (streptactin-sepharose, thrombin digestion, SEC); not shown: double Strep II, N-terminal, cleaved
